Test results as given in patent US8361473B2, “Antibodies and their uses for diagnosis and treatment of cytomegalovirus infection and associated diseases” (priority 2007, dated 2013).
“Also recorded” adds a separate entry of the source.

Columns and labels:
Format in all cases: cell-based, human
[1] = test system: CMV infected fibroblast cells killed by CTLs targeted to the pp65 (495-503) epitope; test: Cytotoxicity assay: blocking of CTL-mediated killing; conditions: CMV infected fibroblasts 72 h, target:effector 1:10, five hours
Experimental: Cytotoxicity assay—Target cells were cultured in 48-well plates in DMEM medium plus 10% FCS and were grown up until confluent. Cells were washed and incubated overnight with 15 μCi/ml (1 Ci 37 GBq) [35^S] methionine (NEN). After 1 hour of incubation with the IgG H9 (10-20 μg/ml or the indicated concentration at 37° C.), effector CTL cells were added at a target:effector ratio of 1:3 respectively and incubated for 5 hours at 37° C. After incubation, [35^S] methionine release from target cells was measured in a 50-μl sample of the culture supernatant. All assays were performed in triplicate.
Briefly, fibroblast cells were radioactively labeled with S^35-methionine before infection with the CMV virus and 72 hours later the cells were incubated with H9 Ab. CTLs from a line targeted to the pp65 (495-503) epitope were added at a target (i.e., fibroblast cells)—effector (i.e., CTL) ratio of 1:10 and incubated for five hours. Cells incubated with anti-HLA-A2 W6/32 MAb were used as positive control, while cells without any Ab incubation served as a reference for maximal killing.

[2] = test system: HLA-A2/pp65 495-503 complexes in fibroblasts infected with CMV AD169 or RV798; test: Kinetic flow cytometry of HLA-A2/pp65 complex expression, intracellular and extracellular staining
[3] = test system: HLA-A2/pp65 complexes in CMV infected fibroblasts; test: Confocal microscopy of fibroblasts
Experimental: Confocal microscopy—Infected and noninfected fibroblast cells were fixed for 10 minutes with 0.5% paraformaldehyde, and washed twice with PBS containing 0.1% bovine serum albumin (BSA). The cells were permeabilized and incubated with anti pp65 mAb, H9 IgG, anti calnexin (Chemicon, cat. No. MAB3126), and/or cis-golgi matrix protein (GM130) (BD transduction laboratories, cat No. 610822) in the presence of a PBS medium containing 0.05% saponin, 1% fetal bovine serum, and 0.1% BSA, for 40 minutes at 4° C. Cells were subsequently washed and further incubated with goat anti mouse secondary Ab conjugated to Alexa-flour^594 (Molecular Probes, cat. No. A21216), and goat anti human secondary Ab conjugated to Alexa-flour^488 (Molecular Probes, cat. No. A11013), respectively. DRAQ5 (Alexis Biochemicals) was added to the stained cells before they were washed again. Images were collected on a LSM 510 META laser scanning microscope (Carl Zeiss Microimaging Inc) using a ×63 oil immersion objective numerical aperture 1.32, at different zoom factors. Alexa Fluor^488 was excited using an argon laser at 488 nm. Alexa Fluor^594 was excited using a krypton laser at 568 mm. Differential interference contrast images were collected simultaneous with the fluorescence images using the transmitted light detector. Z stacks of images were collected using a step increment of 0.3 μm between planes. […]

[4] = test system: HLA-A2/pp65 complexes in PBMCs of BMT patients under reactivation of CMV infection; test: Flow cytometry of PBMCs from BMT patients and healthy donors
Experimental: Isolation of PBMCs—Samples of 20-30 ml blood obtained from healthy donors or BMT patients, containing 500 units (U) of heparin was added to 50 ml sterile tubes containing 15 ml Lymphoprep™ (Axis shield PoC AS, Oslo Norway). The blood was added gently without mixing between the Ficoll and the blood. The tubes were centrifuged for 30 minutes at 1000 g without brakes. The upper layer that contains the serum was removed and the Buffy coat that contains the peripheral blood mononuclear cells (PBMCs) was transferred to new tubes. The PBMCs were washed twice with 40 ml of phosphate buffer saline (PBS) and 2 mM EDTA (centrifuged at 700 g for 8 minutes). The PBMCs were resuspended in 20 ml PBS, counted, centrifuged at 500 g for 8 minutes and resuspended in PBMCs medium at 1-5×10^6 cells/ml. About 70×10^6 cells are isolated from a total of 50 ml blood sample.
The ability of the H9 Ab to detect HLA-A2/pp65 complexes was further evaluated in heterogeneous population of cells taken from CMV infected individuals. Briefly, samples were taken from bone marrow transplanted (BMT) patients whom are under reactivation of CMV infection due to immuno-suppression. Healthy donors were used as a control to verify the H9 Fab specificity.
Peripheral blood mononuclear cells (PBMCs) were isolated from samples taken from BMT patients and healthy donors. The isolated cells were stained with the H9 Ab and the secondary anti human alexa fluor^488 Ab. For intracellular staining with the H9 Ab, the cells were permeabilized as described under “General Materials and Experimental Methods”.

B1: H9 IgG Ab: whole IgG molecule made from recombinant H9 Fab, produced in HEK293 cells (antibody)
heavy: EVQLVQSGAEVKKPGSSVKVSCKASGGTFSSYAISWVRQAPGQGLEWMGGIIPIFGTANYAQKFQGRVTITADESTSTAYMELSSLRSEDTAVYYCARGDLYYYDSSGYPRYYFDYWGQGTLVTVSSASTKGPSVFPLAPSSKSTSGGTAALGCLVKDYFPEPVTVSWNSGALTSGVHTFPAVLQSSGLYSLSSVVTVPSSSLGTQTYICNVNHKPSNTKVDKKVEPKSC
light: LETTLTQSPGTLSLSPGERATLSCRASQSVSSSYLAWYQQKPGQAPRLVIYGASSRATGIPDRFSGSGSGTDFTLTISRLEPEDFAVYYCQHYSTSPGFTFGQGTKLEIRRTVAAPSVFIFPPSDEQLKSGTASVVCLLNNFYPREAKVQWKVDNALQSGNSQESVTEQDSKDSTYSLSSHQGLSSPVTKSFNRGEC
modifications: left off: a dimerising Fc or GST
[1]
  blockage of killing by the CTLs: ~60%
[2]; 36, 72, 96, 120 hours, intracellular and cell surface
  staining of HLA-A2+ cells infected with wild-type AD169 over time: specific and gradual increase in staining
[2]; inside and on the cell surface
  reactivity with uninfected HLA-A2 positive cells: not reactive

B2: H9 Ab: H9 antibody, form not specified at the place; CDRs SEQ ID NOs:24-26 (heavy) and 30-32 (light) (antibody)
heavy: EVQLVQSGAEVKKPGSSVKVSCKASGGTFSSYAISWVRQAPGQGLEWMGGIIPIFGTANYAQKFQGRVTITADESTSTAYMELSSLRSEDTAVYYCARGDLYYYDSSGYPRYYFDYWGQGTLVTVSSASTKGPSVFPLAPSSKSTSGGTAALGCLVKDYFPEPVTVSWNSGALTSGVHTFPAVLQSSGLYSLSSVVTVPSSSLGTQTYICNVNHKPSNTKVDKKVEPKSC
light: LETTLTQSPGTLSLSPGERATLSCRASQSVSSSYLAWYQQKPGQAPRLVIYGASSRATGIPDRFSGSGSGTDFTLTISRLEPEDFAVYYCQHYSTSPGFTFGQGTKLEIRRTVAAPSVFIFPPSDEQLKSGTASVVCLLNNFYPREAKVQWKVDNALQSGNSQESVTEQDSKDSTYSLSSHQGLSSPVTKSFNRGEC
modifications: left off: a dimerising Fc or GST
[3]
  staining of control noninfected cells: no staining
[4]; BMT patients or healthy controls, cell surface
  extracellular staining of PBMCs: did not detect; also recorded: No detection
[4]; permeabilized cells
  intracellular staining of PBMCs from BMT patients: significant binding; also recorded: significant specific staining
  intracellular staining of PBMCs from healthy donors: no staining
